Some of the results follow. The full chains were built here from the parent and the listed change. Inactive controls read about 0.05.
B1: TEV protease; numbered along this chain (parent)
chain: MGESLFKGPRDYNPISSSICHLTNESDGHTTSLYGIGFGPFIITNKHLFRRNNGTLVVQSLHGVFKVKDTTTLQQHLVDGRDMIIIRMPKDFPPFPQKLKFREPQREERICLVTTNFQTKSMSSMVSDTSCTFPSGDGIFWKHWIQTKDGQCGSPLVSTRDGFIVGIHSASNFTNTNNYFTSVPKNFMELLTNQEAQQWVSGWRLNADSVLWGGHKVFMVKPEEPFQPVKEATQL

Variants of: B1
Experiment: raw area under fraction-flipped curve 0-4 h after induction (AUC4h, not background-subtracted), DNA-recorder readout of cleavage of the substrate (dimensionless); higher = more cleavage of the substrate by the protease variant
Details: temperature: 34 °C; time window: 0-4 h after rhamnose induction
Protocol: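 In vivo DNA recorder in E. coli TOP10(DE3) ΔrhaA at 34 °C. Each TEVp single-site mutant (parent TEVp 0) is paired with a single-site variant of the 7-mer TEVs (canonical ENLYFQ|S). The substrate sits between flexible linkers in a Bxb1-sfGFP-TEVs-SsrA fusion, so cleavage stabilises Bxb1 and speeds flipping of a recombination array, read by NGS. The value is the raw area under the fraction-flipped curve over 0-4 h after rhamnose induction (AUC4h), with ≥20 reads per time point. It is not background-subtracted; inactive controls average about 0.047.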
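Also: Bxb1 expression induced with 0.2% (w/v) L-rhamnose at OD600 near 0.5, cultures sampled hourly, flipped fraction per protease–substrate barcode pair counted by paired-end Illumina sequencing.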

Row | Variant | area with substrate CNLYFQS | area with substrate GNLYFQS | area with substrate HNLYFQS | area with substrate INLYFQS | area with substrate KNLYFQS | area with substrate MNLYFQS | area with substrate SNLYFQS | area with substrate TNLYFQS | area with substrate VNLYFQS | area with substrate YNLYFQS | area with substrate PNLYFQS | area with substrate RNLYFQS | area with substrate WNLYFQS | area with substrate FNLYFQS | area with substrate LNLYFQS | area with substrate NNLYFQS | area with substrate QNLYFQS | area with substrate DNLYFQS
1 | W212M | 0.0904 | 0.0638 | 0.0589 | 0.0739 | 0.084 | 0.0799 | 0.0703 | 0.074 | 0.104 | 0.0687 | – | – | – | – | – | – | – | –
2 | G166T | 0.0279 | 0.0566 | 0.0432 | – | – | 0.0396 | 0.051 | 0.0833 | – | – | 0.0549 | 0.0486 | 0.0755 | – | – | – | – | –
3 | G166Q | 0.0523 | – | 0.0629 | – | – | 0.0263 | – | – | 0.0503 | – | – | 0.0461 | 0.0498 | 0.0382 | 0.0608 | 0.0519 | – | –
4 | G166S | 0.0449 | 0.0334 | 0.0531 | – | – | – | 0.0669 | 0.0525 | – | – | – | – | 0.0463 | 0.0602 | 0.0287 | 0.0444 | – | –
5 | S169N | 0.0514 | – | 0.0553 | 0.04 | – | – | 0.0493 | 0.0565 | – | 0.0532 | 0.0629 | – | – | 0.0471 | 0.0546 | – | 0.0577 | –
6 | S169C | 0.0601 | 0.0771 | 0.0658 | – | 0.0775 | – | – | 0.0489 | – | – | 0.0422 | 0.0393 | 0.0648 | – | – | – | – | –
7 | S169A | 0.0655 | – | 0.0593 | 0.0636 | 0.0643 | 0.0692 | 0.0658 | 0.0713 | – | 0.0508 | 0.0578 | – | 0.0441 | – | 0.0611 | 0.0601 | – | –
8 | S171G | 0.056 | 0.0538 | – | 0.0734 | 0.0699 | 0.0356 | 0.0229 | 0.062 | – | – | 0.0553 | – | – | – | – | 0.0486 | – | –
9 | M188T | 0.0654 | 0.0734 | 0.063 | 0.0739 | – | 0.0817 | 0.0612 | 0.0714 | 0.0431 | – | 0.0733 | – | – | – | 0.0657 | 0.0784 | 0.0643 | –
10 | M188L | 0.0789 | 0.0717 | 0.0564 | – | 0.0584 | 0.0687 | 0.0504 | 0.0601 | – | – | 0.06 | – | 0.0571 | 0.0745 | – | – | – | –
11 | M188C | 0.118 | – | 0.07 | 0.0697 | – | – | – | – | – | – | 0.0563 | – | 0.0564 | – | 0.0802 | 0.0728 | – | 0.0722
12 | N178I | 0.0552 | – | – | – | – | – | 0.0629 | – | 0.0579 | – | – | – | – | 0.0362 | – | 0.0495 | – | 0.048
13 | E195D | 0.0639 | – | 0.0651 | – | 0.0603 | – | 0.0622 | 0.0631 | – | – | 0.0459 | – | 0.0665 | 0.0477 | 0.0725 | – | 0.07 | –
14 | E195C | 0.048 | – | 0.0722 | 0.0632 | – | 0.0665 | 0.0601 | 0.0526 | 0.0625 | 0.055 | – | 0.058 | 0.0553 | 0.0667 | 0.0661 | 0.055 | – | –
15 | S209C | 0.0669 | – | 0.0642 | – | – | – | – | 0.0546 | – | 0.0906 | 0.139 | 0.0647 | 0.0611 | – | – | – | – | –
16 | V217N | 0.0546 | 0.0744 | – | 0.0703 | 0.0679 | 0.0483 | 0.0605 | 0.0463 | 0.0431 | 0.0598 | – | – | 0.0602 | 0.0716 | 0.0587 | 0.0619 | – | –
17 | V217H | 0.0542 | – | 0.0566 | – | – | 0.0559 | 0.0468 | – | – | 0.0551 | 0.0627 | – | 0.0712 | 0.0605 | – | 0.0458 | – | –

Row | Variant | area with substrate CNLYFQS | area with substrate GNLYFQS | area with substrate HNLYFQS | area with substrate INLYFQS | area with substrate KNLYFQS | area with substrate MNLYFQS | area with substrate SNLYFQS | area with substrate TNLYFQS | area with substrate VNLYFQS | area with substrate YNLYFQS | area with substrate PNLYFQS | area with substrate RNLYFQS | area with substrate WNLYFQS | area with substrate FNLYFQS | area with substrate LNLYFQS | area with substrate NNLYFQS | area with substrate QNLYFQS | area with substrate DNLYFQS
18 | R204E | 0.0666 | 0.0747 | 0.0673 | – | – | 0.0757 | – | 0.0908 | 0.0699 | – | – | – | 0.0554 | – | 0.0625 | – | 0.0825 | –
19 | R204N | 0.0655 | 0.075 | 0.071 | – | 0.064 | 0.0736 | 0.0521 | 0.0635 | 0.0796 | 0.0614 | 0.0693 | 0.0545 | 0.0584 | 0.0809 | 0.0557 | 0.0485 | – | –
20 | T192D | 0.0678 | – | – | 0.073 | 0.0629 | 0.0703 | 0.0823 | – | – | 0.0573 | 0.0794 | – | 0.0655 | 0.0587 | 0.0647 | 0.0385 | – | –
21 | T192P | 0.0559 | 0.0652 | 0.0695 | 0.0442 | 0.0599 | 0.0577 | 0.072 | – | 0.0546 | 0.0582 | 0.0539 | – | 0.0556 | 0.061 | 0.0664 | 0.0431 | 0.0532 | –
22 | V210G | 0.0567 | – | – | – | – | 0.06 | – | 0.0422 | – | – | 0.0493 | – | 0.0567 | – | – | – | – | –
23 | V210K | 0.099 | 0.053 | 0.0585 | – | 0.0678 | 0.063 | – | 0.0528 | 0.063 | 0.0636 | – | – | 0.0503 | 0.0558 | 0.0648 | 0.065 | – | –
24 | V210D | 0.0637 | – | 0.0572 | 0.0737 | 0.064 | – | 0.0589 | 0.0566 | 0.0669 | – | 0.0816 | – | 0.0566 | 0.0562 | 0.0619 | 0.0615 | 0.0523 | –
25 | F180I | 0.0525 | 0.0501 | 0.0534 | 0.049 | 0.0566 | – | – | 0.0475 | 0.0565 | 0.038 | – | – | 0.052 | 0.0419 | – | 0.0473 | – | –
26 | V165D | 0.0493 | 0.0533 | 0.0402 | – | 0.0437 | – | 0.0452 | 0.0639 | – | – | 0.0519 | 0.0595 | 0.045 | 0.047 | – | – | 0.0544 | –
27 | E189D | 0.061 | 0.0792 | 0.0743 | 0.0624 | – | 0.0644 | – | 0.068 | 0.0743 | 0.0599 | – | – | 0.0578 | 0.105 | – | – | – | –
28 | E189I | 0.074 | 0.0601 | 0.0515 | 0.0691 | 0.0642 | 0.0595 | 0.0687 | – | – | 0.0558 | 0.0682 | – | 0.0615 | – | – | 0.0724 | – | –
29 | E189V | 0.0833 | 0.0531 | 0.088 | 0.0656 | – | 0.0555 | – | 0.0963 | 0.0596 | – | – | – | – | 0.0533 | 0.0754 | 0.062 | – | –
30 | K216L | 0.0474 | – | – | 0.0678 | 0.0642 | 0.0757 | 0.0192 | – | – | – | – | – | – | – | – | 0.0712 | – | –
31 | N193P | 0.0647 | 0.0621 | – | – | 0.0468 | 0.0385 | 0.0675 | 0.0611 | – | 0.0618 | 0.0649 | – | 0.0539 | – | – | 0.0693 | – | –
32 | N177V | 0.122 | 0.145 | 0.0732 | 0.087 | – | 0.0989 | 0.103 | 0.0833 | – | 0.0881 | 0.134 | – | 0.0707 | 0.0862 | 0.0855 | – | – | –
33 | T181G | 0.0693 | 0.058 | – | – | – | 0.0496 | – | 0.0528 | 0.0588 | – | 0.0553 | – | 0.0516 | 0.0683 | 0.0547 | 0.0596 | – | –

Source: the supplement of paper PMC12217912
